# Measurements taken from the RNAGym collection of RNA variant scans (doi:10.1093/nar/gkz1192).
# The source gives no read counts; variants with many changes may rest on few reads.
# B1: CPEB3 Ribozyme (parent)
# chain: UAACAGGGGGCCACAGCAGAAGCGUUCACGUCGCAGCCCCUGUCAGAUUCUGGUGAAUCUGCGAAUUCUGCUGUAUAUCUC
# Variants of: B1
# Experiment: self-cleavage, relative activity (ratio to wild type); higher = more cleavage; in vitro, sequencing
# In short: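 After error-prone PCR and barcoding, CPEB3 ribozyme mutant libraries were transcribed with T7 RNA polymerase at 37°C for 5 hours, then given 15 min with DNase I before an EDTA stop, and they cleaved during both steps. Reverse transcription with template switching preceded Illumina sequencing. Relative activity divides a variant's cleaved/total read fraction by the unmutated ribozyme's. At least 5 reads were required per variant, and three batches were averaged.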
row,Variant,self-cleavage
1,C12G A13U U25C G33U C40A U69A,0.04
2,C12G A15G G24A C38U U41C,0.09
3,C12G A15U A18U U25A U43A G55U U80C,0.03
4,C12G A15U G30A,0.09
5,C12G A18G U43C U67A,0.06
6,C12G A20U U43C U74C,0.05
7,C12G A21G G24A C38U C40A A57C U76C,0.04
8,C12G A21G U43C A45U C62U A77G U80A,0.04
9,C12G A56G A75G C79A,0.44
10,C12G C17G A18G A20G U25C A45G U60A,0.09
11,C12G C32A U41A U60C,0.07
12,C12G G19A U67C U69C,0.09
13,C12G G42A A57G U58A U72G G73C,0.03
14,C12G U25C U67A,0.17
15,C12G U26C A28G U48A,0.08
16,C12G U41A A45G U67A U78C U80C,0.04
17,C12G U41A A45U U51C U54C U78C,0.1
18,C12G U43G U48A A65C U80A,0.06
19,C12U A13G A28G,0.36
20,C12U A13U A21G A56U A57G U67C U72A,0.17
21,C12U A15G A20G U31C U49C,0.02

row,Variant,self-cleavage
1,C12U A15G U26C A47G C68U U74C,0.32
2,C12U A15G U31A U43C U51C U69C U80G,0.12
3,C12U A18C A21C A45G U49C G55U U72G,0.04
4,C12U A18C A35G A47G U49C,0.1
5,C12U A18G A20C U41C U58C A65G U76C,0.07
6,C12U A18G A21G U26C G30A,0.43
7,C12U A18G G73C,1.24
8,C12U A18G U26A U49C A56G U74G A75U,1.13
9,C12U A18G U31C,0.34
10,C12U A18G U41G G46U,0.09
11,C12U A18G U66C,0.32
12,C12U A18U A45G U49C U67A U72A,0.08
13,C12U A20G A21G A56G U69C,0.09
14,C12U A20G C32A C40U C44G U60C,0.13
15,C12U A20G G33A,0.1
16,C12U A20G U26C U80C,0.53
17,C12U A20G U31A U49C U54A,0.35
18,C12U A20G U41A U43C A47G A77G,0.05
19,C12U A20G U43G G73U,0.07
20,C12U A20U U25A A64G U78A,0.26
21,C12U A20U U60G,0.14

row,Variant,self-cleavage
1,C12U A21G C39A U69C A77G,0.04
2,C12U A21G U78C,0.85
3,C12U A21U A64U,0.48
4,C12U A28G G33A U54A U69A,0.07
5,C12U A35U U41A U60C U72A,0.07
6,C12U A45G U58C,0.32
7,C12U A47G G53A U60G A75G,0.98
8,C12U A47G U51A,1.17
9,C12U A47G U72C,1.19
10,C12U A56G U58C U72A,0.43
11,C12U A57G U78C,1.02
12,C12U A64G A65G,0.21
13,C12U A64G U66A G73A U80C,0.37
14,C12U A65G G70A U74C,0.51
15,C12U C14U A20G U26A,1.21
16,C12U C23A U25A A28C U41C A47G U67C,0.05
17,C12U C39U U48C U67C,0.07
18,C12U C40U A45U U48C U49C,0.12
19,C12U C40U U43C,0.2
20,C12U G19A U31C C32U U43C G55A A56G,0.04
21,C12U G22U A75G,0.51

row,Variant,self-cleavage
1,C12U G30A A57G,0.44
2,C12U G46A U58C,0.15
3,C12U G46A U67C,0.14
4,C12U U25C A45U A77U,0.04
5,C12U U25C A47U U51A U66C A77G,0.04
6,C12U U25C A56G G73A,0.23
7,C12U U25C U51A U66C,0.16
8,C12U U26C A28C U69A U72C,0.14
9,C12U U26C A28U A56U,0.13
10,C12U U26C G33U U60A U67C U72A U78C,0.05
11,C12U U26C U31A A47C U80C,0.13
12,C12U U31A U76C,1.09
13,C12U U31C A65U C68A,0.11
14,C12U U31C C38U A45G,0.57
15,C12U U41A A57U U60C U72C,0.1
16,C12U U41A U48C,0.07
17,C12U U41C U43C U78A,1.02
18,C12U U54C U60C,0.46
19,C12U U74A U80C,1.48
20,A13C A15G A20G U49C,0.05
